Measurements as given in publication PMC9911399, “Two distinct binding modes provide the RNA-binding protein RbFox with extraordinary sequence specificity”.
Where a chain is given by its changes, count along the chain named. Some of the results follow.

B1: GACAACA (DNA:RNA)
RNA: GGGAGACCGGAAUUCAGAUUGUCCGACAACAUUAAAUCCCGUCGUAGCCACCA
DNA 1: CAATCTGAATTCCGGTCTCCC
DNA 2: TGGTGGCTACGACGGGATT
B2: UUCUGUC (DNA:RNA)
RNA: B1 RNA with G25U, A26U, A28U, A29G, C30U, A31C
DNA 1: CAATCTGAATTCCGGTCTCCC
DNA 2: TGGTGGCTACGACGGGATT
B3: UUCCCUC (DNA:RNA)
RNA: B1 RNA with G25U, A26U, A28C, A29C, C30U, A31C
DNA 1: CAATCTGAATTCCGGTCTCCC
DNA 2: TGGTGGCTACGACGGGATT
B4: CGUCGCU (DNA:RNA)
RNA: B1 RNA with G25C, A26G, C27U, A28C, A29G, A31U
DNA 1: CAATCTGAATTCCGGTCTCCC
DNA 2: TGGTGGCTACGACGGGATT
B5: AGUUACA (DNA:RNA)
RNA: B1 RNA with G25A, A26G, C27U, A28U
DNA 1: CAATCTGAATTCCGGTCTCCC
DNA 2: TGGTGGCTACGACGGGATT
B6: GAAGCUU (DNA:RNA)
RNA: B1 RNA with C27A, A28G, A29C, C30U, A31U
DNA 1: CAATCTGAATTCCGGTCTCCC
DNA 2: TGGTGGCTACGACGGGATT
B7: GCCACGU (DNA:RNA)
RNA: B1 RNA with A26C, A29C, C30G, A31U
DNA 1: CAATCTGAATTCCGGTCTCCC
DNA 2: TGGTGGCTACGACGGGATT
B8: AAUCAUA (DNA:RNA)
RNA: B1 RNA with G25A, C27U, A28C, C30U
DNA 1: CAATCTGAATTCCGGTCTCCC
DNA 2: TGGTGGCTACGACGGGATT
B9: ACUAACC (DNA:RNA)
RNA: B1 RNA with G25A, A26C, C27U, A31C
DNA 1: CAATCTGAATTCCGGTCTCCC
DNA 2: TGGTGGCTACGACGGGATT
B10: UAUUUUA (DNA:RNA)
RNA: B1 RNA with G25U, C27U, A28U, A29U, C30U
DNA 1: CAATCTGAATTCCGGTCTCCC
DNA 2: TGGTGGCTACGACGGGATT
B11: GAGACGG (DNA:RNA)
RNA: B1 RNA with C27G, A29C, C30G, A31G
DNA 1: CAATCTGAATTCCGGTCTCCC
DNA 2: TGGTGGCTACGACGGGATT
B12: GCCGCGU (DNA:RNA)
RNA: B1 RNA with A26C, A28G, A29C, C30G, A31U
DNA 1: CAATCTGAATTCCGGTCTCCC
DNA 2: TGGTGGCTACGACGGGATT
B13: CAAUGAU (DNA:RNA)
RNA: B1 RNA with G25C, C27A, A28U, A29G, C30A, A31U
DNA 1: CAATCTGAATTCCGGTCTCCC
DNA 2: TGGTGGCTACGACGGGATT
B14: UUCCGAU (DNA:RNA)
RNA: B1 RNA with G25U, A26U, A28C, A29G, C30A, A31U
DNA 1: CAATCTGAATTCCGGTCTCCC
DNA 2: TGGTGGCTACGACGGGATT
B15: GUUGAUU (DNA:RNA)
RNA: B1 RNA with A26U, C27U, A28G, C30U, A31U
DNA 1: CAATCTGAATTCCGGTCTCCC
DNA 2: TGGTGGCTACGACGGGATT
B16: AUGGGAU (DNA:RNA)
RNA: GGGAGACCGGAAUUCAGAUUGUCCAUGGGAUUUAAAUCCCGUCGUAGCCACCA
DNA 1: CAATCTGAATTCCGGTCTCCC
DNA 2: TGGTGGCTACGACGGGATT
B17: UGCAUCG (DNA:RNA)
RNA: B1 RNA with G25U, A26G, A29U, A31G
DNA 1: CAATCTGAATTCCGGTCTCCC
DNA 2: TGGTGGCTACGACGGGATT
B18: UGCCGAG (DNA:RNA)
RNA: B16 RNA with A25U, U26G, G27C, G28C, U31G
DNA 1: CAATCTGAATTCCGGTCTCCC
DNA 2: TGGTGGCTACGACGGGATT
B19: AGAGAGU (DNA:RNA)
RNA: B16 RNA with U26G, G27A, G29A, A30G
DNA 1: CAATCTGAATTCCGGTCTCCC
DNA 2: TGGTGGCTACGACGGGATT
B20: AUUCGGC (DNA:RNA)
RNA: B16 RNA with G27U, G28C, A30G, U31C
DNA 1: CAATCTGAATTCCGGTCTCCC
DNA 2: TGGTGGCTACGACGGGATT
B21: ACGCUCA (DNA:RNA)
RNA: B16 RNA with U26C, G28C, G29U, A30C, U31A
DNA 1: CAATCTGAATTCCGGTCTCCC
DNA 2: TGGTGGCTACGACGGGATT
B22: UCCCGCC (DNA:RNA)
RNA: B1 RNA with G25U, A26C, A28C, A29G, A31C
DNA 1: CAATCTGAATTCCGGTCTCCC
DNA 2: TGGTGGCTACGACGGGATT
B23: AAUCAGU (DNA:RNA)
RNA: B16 RNA with U26A, G27U, G28C, G29A, A30G
DNA 1: CAATCTGAATTCCGGTCTCCC
DNA 2: TGGTGGCTACGACGGGATT
B24: GCUGUGU (DNA:RNA)
RNA: B16 RNA with A25G, U26C, G27U, G29U, A30G
DNA 1: CAATCTGAATTCCGGTCTCCC
DNA 2: TGGTGGCTACGACGGGATT
B25: CUCUAUC (DNA:RNA)
RNA: B1 RNA with G25C, A26U, A28U, C30U, A31C
DNA 1: CAATCTGAATTCCGGTCTCCC
DNA 2: TGGTGGCTACGACGGGATT
B26: UGUACCA (DNA:RNA)
RNA: B1 RNA with G25U, A26G, C27U, A29C
DNA 1: CAATCTGAATTCCGGTCTCCC
DNA 2: TGGTGGCTACGACGGGATT
B27: GGUUCCA (DNA:RNA)
RNA: B1 RNA with A26G, C27U, A28U, A29C
DNA 1: CAATCTGAATTCCGGTCTCCC
DNA 2: TGGTGGCTACGACGGGATT
B28: CCUGCGC (DNA:RNA)
RNA: B16 RNA with A25C, U26C, G27U, G29C, A30G, U31C
DNA 1: CAATCTGAATTCCGGTCTCCC
DNA 2: TGGTGGCTACGACGGGATT
B29: GAAUAUU (DNA:RNA)
RNA: B1 RNA with C27A, A28U, C30U, A31U
DNA 1: CAATCTGAATTCCGGTCTCCC
DNA 2: TGGTGGCTACGACGGGATT
B30: GUUAAGG (DNA:RNA)
RNA: B1 RNA with A26U, C27U, C30G, A31G
DNA 1: CAATCTGAATTCCGGTCTCCC
DNA 2: TGGTGGCTACGACGGGATT
B31: AGGUGUA (DNA:RNA)
RNA: B16 RNA with U26G, G28U, A30U, U31A
DNA 1: CAATCTGAATTCCGGTCTCCC
DNA 2: TGGTGGCTACGACGGGATT

molecular target: T1, RBFOX1 RRM RbFoxmut (Fox-RRM*) (Homo sapiens, UniProt Q9NWB1 109-208, R118D;E147R;N151S;E152T); test: EMSA; HiTS-Eq, 1 nM pool, 10 min; buffer printed only for the single-RNA assays: 10 mM Tris pH 7.5, 150 mM NaCl, 3.4 mM EDTA, 0.001% NP-40, 30 C; details: tags: His6 N-terminal (pET28a); label: 5' 32P
T1 sequence: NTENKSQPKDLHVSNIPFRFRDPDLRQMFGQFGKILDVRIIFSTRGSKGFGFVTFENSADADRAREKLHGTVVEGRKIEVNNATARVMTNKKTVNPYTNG
How it was run: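 Purified RbFox RRM, wild type or mutant, was incubated for 10 min in 50 µL with 1 nM of a 5′-radiolabelled RNA pool carrying 7 randomized nucleotides, whose flanks were annealed to DNA oligonucleotides, over a series of increasing protein concentrations. Unbound RNA was resolved on 8% native PAGE, cut out, reverse-transcribed, barcoded by PCR and sequenced on an Illumina HiSeq 2500. Relative association constants were derived from changes in read counts for each RNA species versus the control reaction and normalised to the cognate motif.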

Binder	binding signal
B1	0.0695 KA relative to UGCAUGU
B2	0.197 KA relative to UGCAUGU
B3	0.0688 KA relative to UGCAUGU
B4	0.11 KA relative to UGCAUGU
B5	0.095 KA relative to UGCAUGU
B6	0.0705 KA relative to UGCAUGU
B7	0.0977 KA relative to UGCAUGU
B8	0.0759 KA relative to UGCAUGU
B9	0.0911 KA relative to UGCAUGU
B10	0.132 KA relative to UGCAUGU
B11	0.0522 KA relative to UGCAUGU
B12	0.13 KA relative to UGCAUGU
B13	0.085 KA relative to UGCAUGU
B14	0.0783 KA relative to UGCAUGU
B15	0.124 KA relative to UGCAUGU
B16	0.111 KA relative to UGCAUGU

Binder	binding signal
B17	0.922 KA relative to UGCAUGU
B18	0.119 KA relative to UGCAUGU
B19	0.114 KA relative to UGCAUGU
B20	0.0996 KA relative to UGCAUGU
B21	0.0846 KA relative to UGCAUGU
B22	0.142 KA relative to UGCAUGU
B23	0.0868 KA relative to UGCAUGU
B24	0.166 KA relative to UGCAUGU
B25	0.0763 KA relative to UGCAUGU
B26	0.0987 KA relative to UGCAUGU
B27	0.0899 KA relative to UGCAUGU
B28	0.0946 KA relative to UGCAUGU
B29	0.153 KA relative to UGCAUGU
B30	0.0786 KA relative to UGCAUGU
B31	0.193 KA relative to UGCAUGU
